Data: US20260216242A1, “ALPP-SPECIFIC VARIANT ANTIGEN BINDING MOLECULES” (ALMAC DISCOVERY LIMITED, priority 2022, published 2026)
Where a chain is given by its changes, count along the chain named. Names and notes keep the numbering of the source.

T1: ALPL expressed on the surface of CHO cells (CHO-ALPL) (Homo sapiens, UniProt P05186)
T1 construct: expressed in transfected cells
T1 sequence (P05186 18-501 limits assumed): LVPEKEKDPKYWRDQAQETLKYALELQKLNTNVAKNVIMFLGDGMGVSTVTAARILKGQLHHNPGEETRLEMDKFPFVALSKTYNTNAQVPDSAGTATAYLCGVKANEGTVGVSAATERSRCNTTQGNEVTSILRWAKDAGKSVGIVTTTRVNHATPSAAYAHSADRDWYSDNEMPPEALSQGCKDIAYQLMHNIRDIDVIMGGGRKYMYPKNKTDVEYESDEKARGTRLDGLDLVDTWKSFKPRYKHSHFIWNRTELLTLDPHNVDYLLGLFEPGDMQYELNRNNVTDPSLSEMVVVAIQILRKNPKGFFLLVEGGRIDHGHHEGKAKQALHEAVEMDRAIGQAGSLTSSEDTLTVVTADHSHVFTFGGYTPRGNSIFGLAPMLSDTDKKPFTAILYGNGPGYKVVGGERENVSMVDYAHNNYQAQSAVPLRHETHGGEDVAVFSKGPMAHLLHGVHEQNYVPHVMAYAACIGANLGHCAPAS

B1: B01-hFc (S239C): B01 VHH fused via [G4S]3 linker to human IgG1 Fc with S239C (protein)
chain: QVQLVESGGGLVQAGGSLRLSCEVTRSPMPIDTMAWYRQAPGRQRELVAIISRSGSTNYADSVKGRFTISRNDTKSTMYKSTMYLKMNTLELEDTGVYYCNAVGLWNGAEYWGQGTQVTVSSGGGGSGGGGSGGGGS[human IgG1 Fc with changes not spelt out]
B2: C07-hFc (S239C): C07 VHH fused via [G4S]3 linker to human IgG1 Fc with S239C (protein)
chain: QVQLVESGGGLVQAGESLRLACAASGTIFSGNAVGWYRQAPEKQREWVSSITDYGDTDYAEAVKGRFTISRDNAKNTVYLQMNSLKPEDTAVYYCYVYQRGESEEYWGQGTQVTVSSGGGGSGGGGSGGGGS[human IgG1 Fc with changes not spelt out]
B3: D10-hFc (S239C): D10 VHH fused via [G4S]3 linker to human IgG1 Fc with S239C (SEQ ID NO: 98) (protein)
chain: QVQLVESGGGLVQPGGSLRLSCAASGSIFSVNTMGWYRQAPGKQRDLVAVATSGGTIHYADSVKGRFTISRDNAKNTVYLQMNSLKPEDTAVYYCNLVVPYGMIAGDHDYWGQGTKVTVSSGGGGSGGGGSGGGGS[human IgG1 Fc with changes not spelt out]
B4: E06-hFc (S239C): E06 VHH fused via [G4S]3 linker to human IgG1 Fc with S239C (SEQ ID NO: 99) (protein)
chain: QVHLVESGGGLVQAGGSLRLSCAASRRSFSEYAMGWFRQAPGKEREFVAAIGWSGVIEYADSVKGRFTISRDNAKDTVYLQMNSLKPEDTAVYYCAAGLGIRVVSQTPAYWGQGTQVTVSSGGGGSGGGGSGGGGS[human IgG1 Fc with changes not spelt out]
B5: E10-hFc (S239C): E10 VHH fused via [G4S]3 linker to human IgG1 Fc with S239C (SEQ ID NO: 100) (protein)
chain: QVQLVESGGGLVQAGGSLRLSCAVSGRALSDYNIGWFRQAPGKEREFVARKTWDGSSTRYDDSVKGRFTVSIEDAKNTAYLQMSSLKTEDTAVYYCAAGRYSRARGWEYDYWGQGTQVTVSSGGGGSGGGGSGGGGS[human IgG1 Fc with changes not spelt out]
B6: F05-hFc (S239C): F05 VHH fused via [G4S]3 linker to human IgG1 Fc with S239C (SEQ ID NO: 101) (protein)
chain: QVQLVESGGGLVQAGGSLRLSCAASGRAFGDYNIGWFRQAPGKEREFVARRTWDGSSTRYDDSVKGRFTVSIDNAKNTAYLQMNSLKTEDTAVYYCAAGRYSRVRGWEYDYWGQGTQVTVSSGGGGSGGGGSGGGGS[human IgG1 Fc with changes not spelt out]
B7: A06-hFc (S239C): A06 VHH fused via [G4S]3 linker to human IgG1 Fc with S239C (SEQ ID NO: 97) (protein)
chain: QVHLVESGGGLVQAGGSLRLSCAASGRTFLSMGWFRQAPGKEREFVAAISWTGGSTGYADSVKGRFTISRESDKETMYLQMNSLKPEDTAVYYCAARGDVYYGGDDATRYKYWGQGTQVTVSSGGGGSGGGGSGGGGS[human IgG1 Fc with changes not spelt out]

Target: T1, ALPL expressed on the surface of CHO cells (CHO-ALPL)
Experiment: Cell-surface binding by flow cytometry, CHO-ALPL
Conditions: VHH-hFc proteins
Method: C-terminal His tagged VHH proteins were assessed for ALPP, ALPPL2, ALPI and ALPL cell-surface binding by flow cytometry. Binders encompassing different epitope bins were screened on CHO cells stably expressing ALPP, ALPPL2, ALPI or ALPL. High levels of cell-surface proteins expression were confirmed for each of the cell-lines by flow cytometry.
Cell surface binding of test agents to hALPP isoforms was characterized in four CHO-ALPP isoform stably transfected cell lines (CHO-ALPP, CHO-ALPPL2, CHO-ALPI and CHO-ALPL) and the resulting KDapp values determined. Adherent cells were detached from tissue culture flasks by incubating with 0.1% EDTA/PBS solution at 37° C. for ~10 minutes or until cells detached easily. Cells were re-suspended in ice-cold PBS/2% FCS in 15 ml tubes and centrifuged at 1700 rpm for 5 mins at 4° C. Supernatant was removed and the cell pellet re-suspended in PBS/2% FCS. A cell count was performed using a Chemometec Nucleocounter NC-202 and 2.5×10^5 cells were aliquoted per test sample into a 96 well plate. Cells were incubated with 100 μl of test agents at a range of concentrations, plus controls for 1 hr on ice. The sample plate was centrifuged at 1700 rpm for 5 mins at 4° C. The supernatant was removed, and a wash performed by re-suspending the cell pellets in 0.25 mL of ice-cold PBS/2% FCS using a multichannel pipette. Samples were again centrifuged at 1700 rpm for 5 min at 4° C. Supernatant was removed and two further washes performed as described. After the final wash and centrifugation step, excess liquid was removed by blotting the plate on tissue paper. Binding of VHH (His6 tagged) agents was determined by adding 100 μl of anti-x6His tag Ab (Abcam) per cell pellet sample as appropriate and incubating on ice for 30 mins. Wash steps were performed as described previously. Fitc-anti-mouse antibody (ThermoFisher) was used to detect binding of the VHH (His6 tagged) agents by incubating with the appropriate samples for 30 min on ice in the dark. Wash steps were performed as described previously. All cell pellets were finally re-suspended in […] of ice-cold PBS/2% FCS and left on ice in the dark prior to analysis on a Merck-Millipore Guava EasyCyte HT or Thermo Fisher Attune N×T flow cytometer.
VHH-hFc proteins were assessed for human ALPP, ALPPL2, ALPI and ALPL cell-surface binding by flow cytometry. Binders were screened on CHO cells stably expressing human ALPP, ALPPL2, ALPI or ALPL.
Cell surface binding of test agents to hALPP isoforms was characterized in four CHO-ALPP isoform transfectant cell lines (CHO-ALPP, CHO-ALPPL2, CHO-ALPI and CHO-ALPL) and the resulting KDapp values determined. Adherent cells were detached from tissue culture flasks by incubating with 0.1% EDTA/PBS solution at 37° C. for ~10 minutes or until cells detached easily. Cells were re-suspended in ice-cold PBS/2% FCS in 15 ml tubes and centrifuged at 1700 rpm for 5 mins at 4° C. Supernatant was removed and the cell pellet re-suspended in PBS/2% FCS. A cell count was performed using a Chemometec Nucleocounter NC-202 and 2.5×10^5 cells were aliquoted per test sample into a 96 well plate. Cells were incubated with 100 μl of test agents at a range of concentrations, plus controls for 1 hr on ice. The sample plate was centrifuged at 1700 rpm for 5 mins at 4° C. The supernatant was removed, and a wash performed by re-suspending the cell pellets in 0.25 mL of ice-cold PBS/2% FCS using a multichannel pipette. Samples were again centrifuged at 1700 rpm for 5 min at 4° C. Supernatant was removed and two further washes performed as described. After the final wash and centrifugation step, excess liquid was removed by blotting the plate on tissue paper. Binding of VHH-hFc agents was determined by adding 100 μl of Fitc-anti-human Ab (ThermoFisher) and incubating for 30 mins on ice in the dark. Wash steps were performed as described previously. […]

Molecule | KDapp CHO-ALPL
B1 | No binding
B2 | No binding
B3 | No binding
B4 | No binding
B5 | No binding
B6 | No binding
B7 | No binding

Tested on: cynomolgus monkey ALPP
Experiment: BLI cross-species reactivity, cynomolgus monkey ALPP
Format: binding
Conditions: VHH-hFc, KD apparent format
Method: Binding kinetics were determined using the Biolayer Interferometry (BLI) Octet K2 or R4 system (Sartorius). Human ALPP, ALPPL2 and ALPL all fused with a disulphide stabilised leucine zipper (SEQ ID NO: 265, SEQ ID NO: 266, and SEQ ID NO: 267) and ALPI His (SEQ ID NO: 264) were used in BLI experiments. For KD apparent measurements, the ALPP proteins were immobilised in sodium acetate pH5 buffer to AR2G sensors using amine coupling. To measure 1:1 interactions, AHC biosensors were used to immobilise Fc-fused proteins. All assays were conducted in HBS-EP with a plate temperature of 25° C. Ka (M^−1s^−1), Kd (s^−1) and KD (nM) values were determined using Octet Data Analysis High Throughput software (Sartorius) for Biolayer Interferometry.
To assess cross-species reactivity of the ALPP/ALPPL2 targeting VHH-hFc fusions, BLI was conducted using mouse ALPPL2 (NCBI #NP_031459), rhesus monkey ALPP (NCBI #XP_028687061) and cynomolgus monkey ALPP (NCBI #XP_045223825). Each of these were expressed as cysteine-stabilised leucine zipper fusions (SEQ ID NO: 271, SEQ ID NO: 272 and SEQ ID NO: 273). BLI was conducted as described above.

Molecule | CynoALPP Ka | CynoALPP Kd
B3 | 1090000 M⁻¹ s⁻¹ | <1e-07 s⁻¹
B4 | 973900 M⁻¹ s⁻¹ | 0.00025 s⁻¹
B5 | 622400 M⁻¹ s⁻¹ | <1e-07 s⁻¹
B6 | 105800 M⁻¹ s⁻¹ | <1e-07 s⁻¹
B7 | 664200 M⁻¹ s⁻¹ | <1e-07 s⁻¹
